Reference: PubChem BioAssay AID1347417 (National Center for Advancing Translational Sciences (NCATS), 2020)
Among all 120,000 compounds or so, about 5,300 (4.4%) were called active. Inconclusive means that the source gave no clear call. Such entries were picked first, then a sample of the others. The call rests on the fitted dose curve; in most records, active means well fitted inhibition curve with a large enough effect; inconclusive means small, poorly fitted or top-dose-only effect; inactive means no such curve, though single readings can be large or run the other way. Where the call is inconclusive, the potency comes from a doubtful curve fit.

Assay: qHTS Primary assay for Inhibitors of Plasmodium falciparum Dd2 growth in vitro; further: nearly all actives have a fitted effect of over 65% in size;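 on activity, negative = inhibition: plate controls were DMSO vehicle for no effect and reference drug for full effect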
Details: P. falciparum Dd2 growth, SYBR Green, 72 h; activity, negative = inhibition: at 28.9 µM (top of the series) unless noted; series mostly up to 28.9 µM
Procedure, shortened: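 Readout: SYBR Green fluorescence, 485 nm excitation, 535 nm emission, after ~16 h lysis at 37C. Before that, Dd2-infected red cells (2.5% hematocrit) grew 72 h with compound, 29 uM top final concentration.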
Potency means the concentration at half of the fitted maximal effect; tags describe the fitted curve by direction and shape.

SMILES	activity, negative = inhibition	Potency	outcome
CC(C)(C)CC(=O)N1CCC(C(NC(=O)c2ccccc2Cl)C(=O)N2CCCCC2)CC1 (stereo unspecified)	inactive: -17%		
COc1ccc(-c2cn3c(n2)CO[C@@H](CNCc2ccccc2OC)C3)cc1		inconclusive: 31.6 µM [inhibitor, single point]	
COc1ccc([C@H]2C[C@@H](O)[C@@H](O)[C@@H]2NCc2cnc[nH]2)cc1		inconclusive: 5.62 µM [inhibitor, single point]	
CN1C(=O)c2cccn2CC1CNC(=O)c1cc2ccccc2[nH]1 (stereo unspecified)		inconclusive: 0.0891 µM [inhibitor, full curve, poor fit]	
O=C1NC(=NC2CCCC2)C2(CCCN(Cc3ccccc3)C2)N1c1cccnc1 (stereo unspecified)	inactive: -12.9%		
NC(=O)c1ccc(CC2CCN(S(=O)(=O)c3ccc4c(c3)CCC4)CC2)cc1		inconclusive: 17.8 µM [inhibitor, single point]	
CCc1ccc(C(=O)c2cn(CC(=O)Nc3ccc(F)cc3)c3ccc(OC)cc3c2=O)cc1		inconclusive: 17.8 µM [inhibitor, single point]	
Cc1ccc(CN2CCc3nc(C4CC4)nc(-c4ccc(O)cc4)c3C2)cc1		inconclusive: 3.98 µM [inhibitor, single point]	
O=C1CN(C(=O)Cc2ccc(F)cc2)C(c2ccccc2)c2cc(Cl)ccc2N1 (stereo unspecified)		inconclusive: 10 µM [inhibitor, single point]	
COc1ccc(NC(=O)Cn2c(=O)n(C(C)C)c(=O)c3oc4ccccc4c32)cc1Cl		inconclusive: 17.8 µM [inhibitor, partial curve, poor fit]	
CCOc1ccc(NC(=O)N2CCN(S(=O)(=O)c3ccc4c(ccn4C)c3)CC2)cc1		inconclusive: 11.2 µM [inhibitor, single point]	
COC(=O)CNC(=O)C1CN(S(=O)(=O)c2cccs2)CC12CCCCC2 (stereo unspecified)		inconclusive: 2.82 µM [inhibitor, single point]	
CCCCNC(=O)c1c(OCC(C)C)cc(=O)n2c1CCCCC2	inactive: 2.23%		
COc1ccc(-c2ccnc(N[C@H]3CO[C@H]4[C@@H]3OC[C@@H]4NS(=O)(=O)c3ccc(NC(C)=O)cc3)n2)cc1		inconclusive: 1.41 µM [inhibitor, single point]	
Cn1ccc(C(=O)N2CCC3(CC2)OC(=O)N(Cc2ccccc2)C3(C)c2ccccc2)n1 (stereo unspecified)			inactive
CCOCCn1c(=O)n(C(CC)C(=O)NC(C)(C)C)c2cc(C(=O)O)cnc21 (stereo unspecified)	inactive: -4.06%		
CCCCNC(=O)c1cccc2c1CCN2S(=O)(=O)c1ccc(C)cc1		inconclusive: 6.31 µM [inhibitor, partial curve, poor fit]	
COc1ccc(-c2nc(C(=O)N3CCOCC3)n3ccccc23)cc1		inconclusive: 25.1 µM [inhibitor, single point]	
CCOC(=O)c1cc(-c2ccccc2)n(CCCC(=O)Nc2ccc(C(C)C)cc2)c1C		inconclusive: 11.2 µM [inhibitor, single point]	
CCCNC(=O)N1C[C@@H]2CCCN3CCC[C@@H]([C@H]23)[C@H]1CCCC(=O)NC	inactive: 9.71%		
COC(=O)c1cccc(-n2c(CCC(=O)O)ccc2-c2ccc(OC)cc2)c1		inconclusive: 17.8 µM [inhibitor, single point]	
COc1ccccc1CN1Cc2cc(NS(=O)(=O)c3ccc(C)c(F)c3)ccc2OC(C)C1=O (stereo unspecified)		inconclusive: 3.98 µM [inhibitor, single point]	

SMILES	activity, negative = inhibition	Potency	outcome
COc1ccc2cc(CN3CCC(N(C)C)C3)c(-c3cccc(C)c3)nc2c1 (stereo unspecified)		active: 11.2 µM	
Cc1cc(C)cc(OCC(=O)NCCc2nc3ccccc3[nH]2)c1		inconclusive: 14.1 µM [inhibitor, single point]	
CCOc1ccc(CC(=O)N2CCCN(C)c3ccccc32)cc1		inconclusive: 8.91 µM [inhibitor, partial curve, poor fit]	
CCc1ccccc1N(C)C(=O)Cc1c(C(=O)O)c(C)cn1C	inactive: -11.4%		
COCc1noc(CCNC(=O)C2CCN(C(=O)C3CC3)CC2)n1	inactive: 6.27%		
COCCNC(=O)c1nc(-c2ccc(F)cc2)c2ccccn12			inactive [at 44.1 µM]
CN(Cc1ccc(F)cc1)c1ccc2ncc(Nc3ccc4c(c3)OCCO4)n2n1		active: 5.62 µM	
COc1ccc(NC(=O)Nc2cccc(-c3ccc(N4CCOCC4)nn3)c2)cc1		inconclusive: 17.8 µM [inhibitor, single point]	
COc1ccccc1CNC(=O)c1oc2ccc(S(=O)(=O)N3CCCCC3)cc2c1C		inconclusive: 8.91 µM [inhibitor, partial curve]	
COc1cccc(C(=O)N2C[C@@H](CO)[C@H](c3nc(C4CC4)no3)C2)c1C			inactive
CCC1CCCCN1S(=O)(=O)c1ccc(C(=O)Nc2sc3c(c2C(=O)NC)CCC3)cc1 (stereo unspecified)		active: 12.6 µM	
Cc1oc(-c2cccc(Oc3ccccc3)c2)nc1CN1CCOC(CCN)C1 (stereo unspecified)		active: 7.08 µM	
Cc1ccc(NC(=O)Cn2c(N3CCC(C)CC3)nc(C)cc2=O)cc1		inconclusive: 3.98 µM [inhibitor, full curve, poor fit]	
Fc1ccc(CN2CCOC[C@H]2c2ncc(-c3ccc(Cl)s3)[nH]2)cc1		active: 11.2 µM	
CCNc1ccnc(N2CCN(Cc3cccc(OC)c3)C(CCO)C2)n1 (stereo unspecified)		inconclusive: 17.8 µM [inhibitor, single point]	
O=C(NCc1ccc(F)c(Cl)c1)c1cccc2c1CCN2C(=O)C1CC1			inactive
COC(=O)c1ccc(Nc2nnc(-c3ccc(C)c(S(=O)(=O)N4CCN(C)CC4)c3)c3ccccc23)cc1		active: 1.58 µM	
Clc1ccccc1C1Cn2cnc(-c3nc(-c4ccccc4)no3)c2CO1 (stereo unspecified)		inconclusive: 10 µM [inhibitor, single point]	
CN1CCCC2(C1)CN(Cc1cccnc1)c1ccc(C(=O)Nc3ccc(F)cc3)cc12 (stereo unspecified)		inconclusive: 3.16 µM [inhibitor, single point]	
COc1cccc(C(=O)NC2CCN(c3cc(-c4ccc(F)cc4)[nH]n3)CC2)c1OC			inactive
COc1ccc(-c2cc(OC(=O)c3ccc(Cl)cc3)c3c(C)oc(C)c3c(=O)c2)cc1		inconclusive: 17.8 µM [inhibitor, single point]	
COc1cccc(Nc2cnc3ccc(-c4cccc(CO)c4)nn23)c1		inconclusive: 5.62 µM [inhibitor, single point]	

SMILES	activity, negative = inhibition	Potency	outcome
COc1ccc(NC(=O)CSc2nc(-c3ccc(OC)cc3)[nH]c2-c2ccc(OC)cc2)cc1	inconclusive: -46.8% [inhibitor] [at 5.79 µM]		
O=C(c1cccs1)N1CC(Oc2cccc(-c3nc(-c4ccccc4)no3)c2)C1	inactive: -16.7% [at 5.79 µM]		
CC1=C[C@@H](CNC(=O)C2CCCCC2)[C@H](C(C)C)C[C@H]1CC(=O)N1CCN(c2ccccn2)CC1		active: 10 µM	
CC(=O)NCCCC(=O)N1CCC2(CC1)CC(NC(C)=O)c1ccccc12 (stereo unspecified)	inactive: 35.4%		
Cc1cnc(CCNS(=O)(=O)c2ccc(C#N)cc2)n1C1CCC1		inconclusive: 4.47 µM [inhibitor, partial curve, poor fit]	
CN1C[C@@H](NC(=O)Nc2ccc(F)cc2F)C[C@H]1c1nc(-c2ccc(Cl)cc2)no1		inconclusive: 11.2 µM [inhibitor, partial curve]	
O=C(NCc1nnc2ccc(-c3ccccc3)nn12)C1CCCCC1		inconclusive: 0.282 µM [inhibitor, partial curve, poor fit]	
Cc1ccc(OCc2ccc(-c3nc(C#N)c(N4CCC(C)CC4)o3)o2)cc1	inactive: -4.02%		
O=C(CCC[C@@H]1[C@H]2CCCN3CCC[C@@H](CN1C(=O)C1(c4ccccc4)CC1)[C@@H]23)NCC1CC1		active: 12.6 µM	
Cn1nc(-c2ccc3c(c2)OCCO3)nc1N1CCCCC1			inactive
CN1C[C@@H](NC(=O)NCc2ccccc2)C[C@H]1c1nc(-c2cncnc2)no1	inactive: -10.8% [at 44.1 µM]		
CC1=C(C(=O)OCc2ccc(C)cc2)C(c2ccccc2Cl)CC(=O)N1 (stereo unspecified)		inconclusive: 17.8 µM [inhibitor, single point]	
Cc1cccc(OCC(=O)Nc2ccc3c(c2)nc(CCNC(=O)c2ccco2)n3C)c1		inconclusive: 6.31 µM [inhibitor, partial curve]	
Cc1nc2c3ccccc3nc(NNC(=O)CCC(=O)N3CCN(c4ccccc4)CC3)n2n1		inconclusive: 17.8 µM [inhibitor, single point]	
CCn1cc(CN2CC(Oc3ccc(-c4noc(-c5cccnc5)n4)cc3)C2)cn1		inconclusive: 3.98 µM [inhibitor, partial curve]	
c1ccc(CCCc2noc(-c3ccc(N4CCOCC4)nc3)n2)cc1		inconclusive: 10 µM [inhibitor, partial curve, poor fit]	
CCOC(=O)c1c(C)oc2nc(C)nc(NC(C)c3ccccc3)c12 (stereo unspecified)		active: 10 µM	
CC(C)N1C(=O)OCC12CCN(Cc1ccc3c(c1)CCO3)C2 (stereo unspecified)	inactive: 1.61% [at 44.1 µM]		
CC1=C(C(=O)Nc2cccnc2)C(c2ccccc2)n2nc(SCc3ccccc3F)nc2N1 (stereo unspecified)		inconclusive: 4.47 µM [inhibitor, partial curve, poor fit]	
CN1CCC2(Cc3ccccc3CN(C(=O)Cc3ccccc3)C2)C1 (stereo unspecified)		inconclusive: 10 µM [inhibitor, partial curve]	
CCCc1noc(-c2ccn3c(CNC(=O)Cc4ccccc4Cl)nnc3c2)n1		inconclusive: 1 µM [inhibitor, partial curve]	
CCNC(=O)N1CCC(Cc2ccc(C(=O)NCCc3c[nH]c4ccccc34)cc2)CC1		inconclusive: 3.98 µM [inhibitor, single point]	
